# Test results as given in PubChem BioAssay AID493208 (National Center for Advancing Translational Sciences (NCATS), 2011).
# Among all 44,000 compounds or so, about 340 (0.77%) were called active. Roughly 5% stayed inconclusive and do not appear here. Calls follow the shape of the dose curve; as a rule, active = well fitted inhibition curve with a large enough effect; inconclusive = small, poorly fitted or top-dose-only effect; inactive = flat fitted curve, though single readings scatter. This is one part of the list.
# Experiment: Acumen qHTS Assay for Inhibitors of the mTORC1 Signaling Pathway in MEF (Tsc2-/-, p53-/-) Cells: Sytravon; also: nearly all actives have a fitted effect of over 50% in size;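 as to activity change, negative = inhibition: plate controls were DMSO for no effect and rapamycin for full effect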
# Details: phospho-rpS6 immunofluorescence/PI, 24 h; series mostly up to 38.3 µM; activity change, negative = inhibition: at the top concentration
# How it was run: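 Read-out: phospho-S6 Alexa-488 intensity over PI intensity per well, scored as % active cells using thresholds from rapamycin (7.5 nM) and DMSO controls. Tsc2-/-, p53-/- MEFs exposed to compound for 24 h; PI cell count recorded as viability.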
# Potency is read from the fitted curve at half-maximal effect.
Compound,"activity change, negative = inhibition",Potency
Cc1nc(-c2ccc(S(=O)(=O)N3CCN(c4ccccc4F)CC3)cc2)co1,inactive: -1.87%,
COc1ccc(C)cc1NC(=O)CN(C)S(=O)(=O)c1ccc2c(c1)c(=O)n(C)c(=O)n2C,inactive: -0.187%,
CCN(C(=O)Cn1c(C(=O)OC)cc2sccc21)c1cccc(C)c1,inactive: -6.29%,
Cc1ccccc1NC(=O)c1sc2nc(-c3cc4ccccc4oc3=O)[nH]c(=O)c2c1C,inactive: -22.9%,
CCCn1cc(S(=O)(=O)c2ccc(C)c(C)c2)c(=O)c2cc(F)c(N3CCCCC3)cc21,inactive: -1.26%,
CC(C)NC(=O)c1ccc(CSc2nc3ccncc3n2Cc2cccc(F)c2)cc1,inactive: -9.75%,
CC(=O)Nc1cccc(NC(=O)CSc2nccn2Cc2ccccc2)c1,inactive: -27%,
Cc1ccccc1-c1noc(-c2ccc(NCc3cccnc3)c([N+](=O)[O-])c2)n1,inactive: 0.122%,
CC1=C(c2ccc(C(C)C)cc2)S(=O)(=O)N=C1N1CCC(C(=O)NCc2ccc(C)o2)CC1,inactive: -4.46%,
O=C(NC1CCCCC1)c1ccc(CSc2nc3cccnc3n2Cc2ccccc2)cc1,inactive: -8.29%,
CC(=O)c1cccc(NC(=O)Cn2ccn3nc(-c4ccccc4)cc3c2=O)c1,inactive: 0%,
Cc1cc(Nc2cc(Cl)ccc2C)n2nc(-c3ccccc3)nc2n1,inactive: -1.89%,
CCOC(=O)c1c(N)n(-c2ccc(OCC)cc2)c2nc3ccccc3nc12,inactive: 1.13%,
Cc1c(CC(=O)NCCc2ccccc2)c(=O)oc2c(C)c3occ(C(C)(C)C)c3cc12,inactive: 2.81%,
O=C(COc1ccccc1-c1nc(-c2ccccc2)no1)Nc1ccc([N+](=O)[O-])cc1,inactive: -0.0775%,
Cc1ccc(CN(Cc2cccn2-c2nnc(N3CCCC3=O)s2)C(=O)Nc2ccccc2Cl)cc1,inactive: -5.51%,
Cc1nc2c(-c3ccc(F)cc3)c(C)nn2c(C)c1CCC(=O)NCc1ccc(F)cc1,inactive: -11.3%,
COc1ccc(OCCCn2c(C3CC(=O)N(c4ccc(F)cc4)C3)nc3ccccc32)cc1 (stereo not drawn),inactive: -4.41%,
COc1ccc(NC(=O)c2nnn(-c3ccc(C(C)C)cc3)c2C)c(OC)c1,inactive: 0.741%,
CC(C)CCNC(=O)c1cc(-c2cccnc2)nc2ccc(S(=O)(=O)N3CCC(C)CC3)cc12,inactive: -1.34%,
O=C(CSc1nc2c([nH]c3ccccc32)c(=O)n1-c1ccccc1)N1CCCCC1,inactive: -0.48%,
COc1ccc(OC)c(-c2noc(N3CCN(c4cccc(C(F)(F)F)c4)CC3)n2)c1,inactive: 0.251%,
CCOc1ccc(-c2cc(C(=O)NCCc3ccc(C)cc3)c3ccccc3n2)cc1,inactive: 5.27%,
Cc1cccc(-n2c3nc(=O)[nH]c(=O)c-3cc3ccc(Cl)cc32)c1C,inactive: 1.27%,
CCOc1cccc2sc(N3CCN(C(=O)c4ccco4)CC3)nc12,inactive: 1.44%,

Compound,"activity change, negative = inhibition",Potency
Cn1c(CN2CCOCC2)nc2cc(NC(=O)c3ccccc3[N+](=O)[O-])ccc21,inactive: -9.36%,
COc1cc(OC)c(NC(=O)c2ccc(-n3cnc4cccnc43)cc2)cc1Cl,inactive: -1.42%,
CCOC(=O)CC(NC(=O)Cn1nnc(-c2ccc(Cl)cc2)n1)c1ccc(OC)cc1 (stereo not drawn),inactive: -15.7%,
O=C(NCCCN1CCN(c2ccc(F)cc2)CC1)Nc1ccccc1Cl,inactive: -8.99%,
COc1cc(NC(=O)CN2CCCN(Cc3cccc(F)c3)S2(=O)=O)cc(OC)c1,inactive: 1.7%,
CCOC(=O)c1c(C)oc2nc(C)nc(NCCc3ccc(C)cc3)c12,inactive: 2.98%,
CCCc1cc(N2CCN(c3ccccc3F)CC2)n2cnnc2n1,inactive: -17%,
Cc1ccc(CN2C(=O)c3ccccc3Sc3ccc(C(=O)N4CCOCC4)cc32)cc1,inactive: -0.322%,
Cc1cccc(C(=O)Nc2ccc(N3CC=C(c4ccccc4C)CC3)c(C(=O)O)c2)c1,inactive: -4.81%,
Cc1ccc(NC(=O)c2oc3ccc(S(=O)(=O)N(C)C4CCCCC4)cc3c2C)c(C)c1,inactive: -9.78%,
COc1ccc(-c2nc(C)c(CCNC(=O)c3ccc(C(F)(F)F)cc3)s2)cc1OC,inactive: -1.78%,
CCOc1ccc(NC(=O)CSc2oc(-c3ccco3)nc2S(=O)(=O)c2ccccc2)cc1,inactive: 10.3%,
CCCNC(=O)c1cc2n(n1)CCCN(Cc1ccc(C)cc1)C2=O,inactive: -27.9%,
O=S(=O)(c1ccccc1)c1nc(-c2ccc(F)cc2)oc1NCc1ccccc1,inactive: -0.656%,
O=C(COc1ccccc1F)Nc1ccc2nc(SCC(=O)N3CCOCC3)sc2c1,inactive: -1.58%,
COc1ccc(CNC(=O)CCCc2nnc3n(C(C)C)c(=O)c4sccc4n23)cc1,inactive: -2.28%,
Cc1ccc(S(=O)(=O)Nc2cc(Cl)c3oc4c(c3c2)CCCC4)cc1,inactive: 17.8%,
O=C(NCCc1ccccc1)c1ccc2c(c1)nc1n2CCOC1,inactive: -19.1%,
CCOc1ccc(CNC(=O)CSc2c3c(nc4cc(Cl)ccc24)CCCC3)cc1,inactive: -12.1%,
Cc1c(-c2nsc(NC(=O)c3cccs3)n2)nnn1-c1ccc(F)cc1,inactive: 4.18%,
CCOC(=O)c1cccc(NC(=O)CSc2ncc3c(n2)-c2ccc(Cl)cc2N(Cc2ccccc2)S3(=O)=O)c1,inactive: 7.67%,
COc1ccccc1CNC(=O)CCS(=O)(=O)c1ccc2c(c1)oc(=O)n2C,inactive: -3.04%,
CCOC(=O)c1oc2c(c1C)-c1nn(Cc3cccc(Cl)c3)cc1CC2,inactive: -1.13%,
Cc1c(C)n(Cc2ccccc2)c2ccc(C(=O)N3CCN(c4ccccc4)CC3)cc12,inactive: 0%,
Cc1ccc(OCC(=O)NCC(=O)OCc2cc(=O)n3nc(C(C)C)sc3n2)cc1,inactive: -8.39%,

Compound,"activity change, negative = inhibition",Potency
CC(C)Oc1ccc(C(=O)N(Cc2ccc(N(C)C)cc2)Cc2ccco2)cc1,inactive: 3.02%,
CCN(C(=O)Cn1c(=O)oc2cc(S(=O)(=O)N3CCCCCC3)ccc21)c1cccc(C)c1,inactive: 1.22%,
O=C(CCS(=O)(=O)c1ccc(Br)s1)Nc1cc(C(F)(F)F)cc(C(F)(F)F)c1,inactive: -28.6%,
Cc1cccc(OC(=O)c2snnc2C)c1,inactive: 1.32%,
Cc1cccc(C)c1Nc1c(-c2ccccn2)nc2ccc(Cl)cn12,inactive: 5.75%,
COc1ccc(-c2nc(CSCC(=O)N3CCN(c4ccccc4F)CC3)c(C)o2)cc1,inactive: -8.14%,
O=C(NCc1ccccc1)NC1COc2ccccc2C1 (stereo not drawn),inactive: 0%,
Cn1cc(S(=O)(=O)N2CCCCCC2)cc1C(=O)NCc1ccc(F)cc1,inactive: -9.44%,
CCOc1ccccc1NC(=O)CSc1ncc2c(n1)-c1ccccc1N(CC)S2(=O)=O,inactive: 5.64%,
COc1ccc(CNCc2ccc(C(=O)O)s2)cc1,inactive: 0.443%,
Cc1cccc(NC(=O)C(=O)NCCCN2CCOCC2)c1,inactive: 6.05%,
CCOc1ccc(NC(=O)c2sc(-n3nc(C)c(CCC(C)C)c3C)nc2C)cc1,inactive: -8.76%,
COc1ccc(NC(=O)c2nc(SCc3ccc(F)cc3)ncc2Cl)cc1,inactive: 1.29%,
CCOc1ccccc1CNC(=O)c1ccc2nc(N3CCC(C)CC3)sc2c1,inactive: 0.0588%,
Cc1ccccc1Nc1c(-c2ccc(N3CCOCC3)cc2)nc2cccc(C)n12,inactive: 1.34%,
CCC(C)Nc1nc2c(c(=O)[nH]c(=O)n2C)n1Cc1ccc(F)cc1 (stereo not drawn),inactive: -20.7%,
Cc1ccc(-n2ncc3c(NCCc4ccc(S(N)(=O)=O)cc4)ncnc32)cc1,inactive: 7.54%,
CCCCOC(=O)CSc1ncnc2sc3c(c12)CCC(C)C3 (stereo not drawn),inactive: -0.119%,
CC1=C(c2ccc(C)cc2)S(=O)(=O)NC1=NCc1ccccc1Cl,inactive: -12.5%,
COC(=O)c1cc2sccc2n1Cc1nc(-c2cccc(Cl)c2)oc1C,inactive: -0.934%,
C=Cc1ccc(Cn2c(C(=O)O)c(CNCCc3ccco3)c3ccc(C)cc32)cc1,inactive: -0.166%,
Cc1ccc2oc(-c3cccc(NC(=O)c4cccc5c(Cl)cccc45)c3)nc2c1,inactive: -4.03%,
CCCCn1c(CCCNC(=O)c2cccc(C)c2)nc2ccccc21,inactive: -2.48%,
COCCNC(=O)Cn1nc(-c2ccc(C)cc2)c2ccccc2c1=O,inactive: 6.11%,
Cc1nc2cc(-c3cccc(F)c3)nn2c(C)c1CCC(=O)Nc1ccccc1C(N)=O,inactive: -6.55%,

Compound,"activity change, negative = inhibition",Potency
Cc1cccc(NC(=O)c2ccc(CN3CC(=O)N4CCCCC4C3=O)cc2)c1C (stereo not drawn),inactive: -0.838%,
COc1ccc(CNc2nc(-c3ccc(Cl)cc3)cc(C(F)(F)F)n2)cc1,inactive: -9.71%,
CCc1ccccc1NC(=O)COCc1cc(-c2ccco2)on1,inactive: 1.16%,
COc1ccccc1S(=O)(=O)Cc1ccc(C(=O)N2CCN(c3cc(Cl)ccc3C)CC2)o1,inactive: -24.1%,
CCOc1ccc2c(c1)c(=O)c(C(=O)c1ccc(CC)cc1)cn2CC(=O)Nc1cccc(Cl)c1,inactive: 2.66%,
COc1cc(C2CC(=O)Nc3ccc4ccccc4c32)ccc1OC(=O)C(C)C (stereo not drawn),inactive: -10.4%,
O=C(NCCc1ccccc1)c1ccc2nc(CCc3ccccc3)oc2c1,inactive: -8.14%,
Cc1cc(C)c(Cn2c(=O)n(CCC(=O)NCc3ccc4c(c3)OCO4)c(=O)c3ccccc32)c(C)c1,inactive: 2.24%,
CCOc1ccc(OCC)c(NC(=O)C2CCN(S(=O)(=O)c3ccc4c(c3)CC(C)N4C(C)=O)CC2)c1 (stereo not drawn),inactive: -16.8%,
Cc1ccc(N2C(=O)[C@@H]3CSC(c4ccc(Cl)cc4)N3C2=O)cc1 (stereo partly drawn),inactive: -9.73%,
Cc1cc(O)c(C(c2ccccc2)N2CCN(c3ccc(F)cc3)CC2)c(=O)n1Cc1ccco1 (stereo not drawn),inactive: 6.44%,
O=C(c1ccco1)N(Cc1cccs1)c1ccc(F)cc1,inactive: -6.76%,
Cc1ccc(-n2c(CCC(=O)O)ccc2-c2cccs2)cc1Cl,inactive: 3.12%,
Cc1cccc(OCc2cc(=O)n3c4c(sc3n2)CCCC4)c1C,inactive: -14.3%,
CCc1ccc(C(=O)CC2(O)C(=O)N(Cc3ccc(C)cc3)c3ccccc32)cc1 (stereo not drawn),,active: 11.7 µM
CC(C)c1nc2ccc(C(=O)NCc3ccccc3Br)cc2o1,inactive: 2.27%,
CCc1ccccc1NC(=O)c1cc2nc(-c3ccc(Br)cc3)cc(C(F)(F)F)n2n1,inactive: -1.47%,
Cc1noc(-c2ccccc2OCC(=O)Nc2ccccc2[N+](=O)[O-])n1,inactive: 2.11%,
COc1cccc(CNC(=O)c2ccc(-n3c(C)cc4c3CCCC4)cc2)c1,inactive: 2.96%,
COc1ccc(CNC(=O)c2sc3nc[nH]c(=O)c3c2C)cc1,inactive: -0.0727%,
CCOc1ccccc1N1CC(c2nc3ccccc3n2CCCOc2ccc(OC)cc2)CC1=O (stereo not drawn),inactive: -8.59%,
CC(C)OCCCN1C(=O)c2[nH]nc(-c3ccccc3O)c2C1c1ccccc1F (stereo not drawn),inactive: -5.14%,
O=C(NCC1CCN(Cc2cccc(Cl)c2)CC1)Nc1ccc(F)c(Cl)c1,,active: 18.5 µM
